This passage reports binding results from article PMC9513894.

The chains behind the UniProt entries cited, without tags or fusion partners.
UniProt P35222: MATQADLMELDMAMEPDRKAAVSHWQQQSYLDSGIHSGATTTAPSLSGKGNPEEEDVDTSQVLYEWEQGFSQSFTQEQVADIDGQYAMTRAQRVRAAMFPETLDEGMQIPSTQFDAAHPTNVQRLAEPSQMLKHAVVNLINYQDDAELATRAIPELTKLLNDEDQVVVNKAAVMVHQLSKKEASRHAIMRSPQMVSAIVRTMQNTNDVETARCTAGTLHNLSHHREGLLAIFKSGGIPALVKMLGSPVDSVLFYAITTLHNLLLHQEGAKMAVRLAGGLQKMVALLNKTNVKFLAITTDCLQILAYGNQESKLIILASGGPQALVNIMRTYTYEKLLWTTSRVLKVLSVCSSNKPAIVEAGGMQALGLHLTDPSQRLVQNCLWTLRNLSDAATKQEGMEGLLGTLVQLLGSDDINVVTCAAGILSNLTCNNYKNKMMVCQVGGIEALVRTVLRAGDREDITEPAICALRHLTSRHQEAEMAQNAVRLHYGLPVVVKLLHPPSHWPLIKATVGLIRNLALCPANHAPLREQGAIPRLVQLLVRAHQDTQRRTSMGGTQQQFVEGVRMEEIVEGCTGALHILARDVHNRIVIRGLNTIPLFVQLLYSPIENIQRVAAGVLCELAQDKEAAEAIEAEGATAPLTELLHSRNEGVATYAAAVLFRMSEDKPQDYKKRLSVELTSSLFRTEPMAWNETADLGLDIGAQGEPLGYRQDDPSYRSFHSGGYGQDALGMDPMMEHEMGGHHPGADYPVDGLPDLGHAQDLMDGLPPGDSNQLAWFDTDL

Results are given in words; binding and its absence hold for the method and conditions named. Binding seen in cells or lysates may run through a third protein. Some binding calls cover weakened binding; strength is not graded here. Tags and fused reporters may be left off the sequences shown.

The target of assay [1] is T1, Flag-HDAC7 (histone deacetylase 7) (UniProt Q8WUI4).
T1 sequence: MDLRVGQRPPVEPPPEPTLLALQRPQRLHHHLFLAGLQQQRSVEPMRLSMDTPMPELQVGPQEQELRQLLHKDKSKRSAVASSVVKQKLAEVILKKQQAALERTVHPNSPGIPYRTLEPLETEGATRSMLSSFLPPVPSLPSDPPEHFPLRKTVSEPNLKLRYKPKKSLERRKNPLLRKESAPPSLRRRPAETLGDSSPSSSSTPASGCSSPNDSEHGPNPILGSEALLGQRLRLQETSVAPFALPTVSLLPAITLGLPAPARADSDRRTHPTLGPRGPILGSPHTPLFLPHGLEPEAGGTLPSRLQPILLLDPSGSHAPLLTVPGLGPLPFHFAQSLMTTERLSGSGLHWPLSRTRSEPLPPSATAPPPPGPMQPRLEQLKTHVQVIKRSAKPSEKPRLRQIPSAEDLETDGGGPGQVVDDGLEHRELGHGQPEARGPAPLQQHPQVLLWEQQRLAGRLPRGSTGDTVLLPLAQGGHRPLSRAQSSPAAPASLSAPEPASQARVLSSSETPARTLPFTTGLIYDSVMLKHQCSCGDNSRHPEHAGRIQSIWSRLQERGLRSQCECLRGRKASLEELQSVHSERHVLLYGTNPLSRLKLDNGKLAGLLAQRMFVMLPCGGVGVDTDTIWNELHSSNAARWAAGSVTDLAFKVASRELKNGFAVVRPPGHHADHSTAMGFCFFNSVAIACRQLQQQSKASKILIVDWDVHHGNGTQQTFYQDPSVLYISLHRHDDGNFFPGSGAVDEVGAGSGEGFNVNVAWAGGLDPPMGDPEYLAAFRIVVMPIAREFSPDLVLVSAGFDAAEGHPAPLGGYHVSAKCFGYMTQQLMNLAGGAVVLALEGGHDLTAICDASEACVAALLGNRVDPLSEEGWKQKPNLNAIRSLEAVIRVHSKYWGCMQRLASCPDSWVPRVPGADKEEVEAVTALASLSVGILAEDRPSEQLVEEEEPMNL
The experiment in a line: co-IP; Flag-HDAC7 or Flag-β-catenin precipitated with anti-Flag agarose from whole cell lysates of EC109 and HEK-293T cells (8 μg per 1 mg lysate, 4 °C, 4 h; washed 4 times with NETN buffer); partner detected by Western blotting. In general terms: A western blot detects proteins with antibodies after separation by electrophoresis.

In assay [2] the target is Flag-β-catenin (UniProt P35222). The description is as above.

“β-catenin (detected in the anti-Flag precipitate of Flag-HDAC7) (from UniProt P35222 1-781)”: in assay [1], the binding result is “binds”.

B1: HDAC7 (detected in the anti-Flag precipitate of Flag-β-catenin) (enzyme, UniProt Q8WUI4 1-952)
chain: MDLRVGQRPPVEPPPEPTLLALQRPQRLHHHLFLAGLQQQRSVEPMRLSMDTPMPELQVGPQEQELRQLLHKDKSKRSAVASSVVKQKLAEVILKKQQAALERTVHPNSPGIPYRTLEPLETEGATRSMLSSFLPPVPSLPSDPPEHFPLRKTVSEPNLKLRYKPKKSLERRKNPLLRKESAPPSLRRRPAETLGDSSPSSSSTPASGCSSPNDSEHGPNPILGSEALLGQRLRLQETSVAPFALPTVSLLPAITLGLPAPARADSDRRTHPTLGPRGPILGSPHTPLFLPHGLEPEAGGTLPSRLQPILLLDPSGSHAPLLTVPGLGPLPFHFAQSLMTTERLSGSGLHWPLSRTRSEPLPPSATAPPPPGPMQPRLEQLKTHVQVIKRSAKPSEKPRLRQIPSAEDLETDGGGPGQVVDDGLEHRELGHGQPEARGPAPLQQHPQVLLWEQQRLAGRLPRGSTGDTVLLPLAQGGHRPLSRAQSSPAAPASLSAPEPASQARVLSSSETPARTLPFTTGLIYDSVMLKHQCSCGDNSRHPEHAGRIQSIWSRLQERGLRSQCECLRGRKASLEELQSVHSERHVLLYGTNPLSRLKLDNGKLAGLLAQRMFVMLPCGGVGVDTDTIWNELHSSNAARWAAGSVTDLAFKVASRELKNGFAVVRPPGHHADHSTAMGFCFFNSVAIACRQLQQQSKASKILIVDWDVHHGNGTQQTFYQDPSVLYISLHRHDDGNFFPGSGAVDEVGAGSGEGFNVNVAWAGGLDPPMGDPEYLAAFRIVVMPIAREFSPDLVLVSAGFDAAEGHPAPLGGYHVSAKCFGYMTQQLMNLAGGAVVLALEGGHDLTAICDASEACVAALLGNRVDPLSEEGWKQKPNLNAIRSLEAVIRVHSKYWGCMQRLASCPDSWVPRVPGADKEEVEAVTALASLSVGILAEDRPSEQLVEEEEPMNL
For the molecule B1, in assay [2], the binding result was “binds”.
